In the supplement of paper PMC12217912:
This is one part of the list. The full chains were built here from the parent and the listed change. Values near 0.05 are background.

B1: TEV protease; numbered along this chain (parent)
chain: MGESLFKGPRDYNPISSSICHLTNESDGHTTSLYGIGFGPFIITNKHLFRRNNGTLVVQSLHGVFKVKDTTTLQQHLVDGRDMIIIRMPKDFPPFPQKLKFREPQREERICLVTTNFQTKSMSSMVSDTSCTFPSGDGIFWKHWIQTKDGQCGSPLVSTRDGFIVGIHSASNFTNTNNYFTSVPKNFMELLTNQEAQQWVSGWRLNADSVLWGGHKVFMVKPEEPFQPVKEATQL

Variants of: B1
Test: raw area under fraction-flipped curve 0-4 h after induction (AUC4h, not background-subtracted), DNA-recorder readout of cleavage of the substrate (dimensionless); higher = more cleavage of the substrate by the protease variant
Conditions: temperature: 34 °C; time window: 0-4 h after rhamnose induction
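Note: Bxb1 expression induced with 0.2% (w/v) L-rhamnose at OD600 near 0.5, cultures sampled hourly, flipped fraction per protease–substrate barcode pair counted by paired-end Illumina sequencing.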

| Variant | area with substrate ENLYFQC | area with substrate ENLYFQD | area with substrate ENLYFQG | area with substrate ENLYFQI | area with substrate ENLYFQK | area with substrate ENLYFQL | area with substrate ENLYFQN | area with substrate ENLYFQR | area with substrate ENLYFQS | area with substrate ENLYFQT | area with substrate ENLYFQV | area with substrate ENLYFQW | area with substrate ENLYFQY | area with substrate ENLYFQE | area with substrate ENLYFQH | area with substrate ENLYFQM | area with substrate ENLYFQQ | area with substrate ENLYFQF | area with substrate ENLYFQP |
| --- | --- | --- | --- | --- | --- | --- | --- | --- | --- | --- | --- | --- | --- | --- | --- | --- | --- | --- | --- |
| MGESLFKGPRDYNPISSSICHLTNESDGHTTSLYGIGFGPFIITNKHLFRRNNGTLVVQSLHGVFKVKDTTTLQQHLVDGRDMIIIRMPKDFPPFPQHLKFREPQREERICLVTTNFQTKSMSSMVSDTSCTFPSGDGIFWKHWIQTKDGQCGSPLVSTRDGFIVGIHSASNFTNTNNYFTSVPKNFMELLTNQEAQQWVSGWRLNADSVLWGGHKVFMVKPEEPFQPVKEATQL [K98H] | 0.12 | 0.0669 | 0.0855 | 0.0661 | 0.0602 | 0.0665 | 0.0791 | 0.0618 | 0.104 | 0.0697 | 0.0576 | 0.0748 | 0.069 |  |  |  |  |  |  |
| MGESLFKGPRDYNPISSSICHLTNESDGHTTSLYGIGFGPFIITNKHLFRRNNGTLVVQSLHGVFKVKDTTTLQQHLVDGRDMIIIRMPKDFPPFPQKTKFREPQREERICLVTTNFQTKSMSSMVSDTSCTFPSGDGIFWKHWIQTKDGQCGSPLVSTRDGFIVGIHSASNFTNTNNYFTSVPKNFMELLTNQEAQQWVSGWRLNADSVLWGGHKVFMVKPEEPFQPVKEATQL [L99T] | 0.0763 |  |  |  | 0.0587 |  | 0.136 | 0.0656 | 0.109 | 0.0424 |  | 0.0522 |  | 0.0699 | 0.0789 | 0.0953 | 0.0491 |  |  |
| MGESLFKGPRDYNPISSSICHLTNESDGHTTSLYGIGFGPFIITNKHLFRRNNGTLVVQSLHGVFKVKDTTTLQQHLVDGRDMIIIRMPKDFPPFPQKLKFREPQREERICLVTTNTQTKSMSSMVSDTSCTFPSGDGIFWKHWIQTKDGQCGSPLVSTRDGFIVGIHSASNFTNTNNYFTSVPKNFMELLTNQEAQQWVSGWRLNADSVLWGGHKVFMVKPEEPFQPVKEATQL [F117T] | 0.113 |  |  |  |  | 0.0704 | 0.0841 | 0.0627 | 0.106 | 0.0499 |  | 0.079 |  |  |  |  |  | 0.0771 |  |
| MGESLFKGPRDYNPISSSICHLTNESDGHTTSLYGIGFGPFIITNKHLFRRNNGTLVVQSLHGVFKVKDTTTLQQHLVDGRDMIIIRMPKDFPPFPQKLKFREPQREEDICLVTTNFQTKSMSSMVSDTSCTFPSGDGIFWKHWIQTKDGQCGSPLVSTRDGFIVGIHSASNFTNTNNYFTSVPKNFMELLTNQEAQQWVSGWRLNADSVLWGGHKVFMVKPEEPFQPVKEATQL [R109D] | 0.119 |  |  |  | 0.0721 | 0.0678 | 0.0815 |  | 0.0953 | 0.0563 |  | 0.0537 |  |  |  |  | 0.0539 |  | 0.0735 |
| MGESLFKGPRDYNPISSSICHLTNESDGHTTSLYGIGFGPFIITNKHLFRRNNGTLVVQSLHGVFKVKDTTTLQQHLVDGRDMIIIRMPKDFPPFPQKLKFVEPQREERICLVTTNFQTKSMSSMVSDTSCTFPSGDGIFWKHWIQTKDGQCGSPLVSTRDGFIVGIHSASNFTNTNNYFTSVPKNFMELLTNQEAQQWVSGWRLNADSVLWGGHKVFMVKPEEPFQPVKEATQL [R102V] | 0.0513 |  | 0.0428 |  | 0.0432 |  | 0.0544 | 0.0495 | 0.0544 | 0.0495 |  |  | 0.0393 |  | 0.0433 | 0.0641 | 0.0452 | 0.0452 |  |
| MGESLFKGPRDYNPISSSICHLTNESDGHTTSLYGIGFGPFIITNKHLFRRNNGTLVVQSLHGVFKVKDTTTLQQHLVDGRDMIIIRMPKDFPPFPQKLKFSEPQREERICLVTTNFQTKSMSSMVSDTSCTFPSGDGIFWKHWIQTKDGQCGSPLVSTRDGFIVGIHSASNFTNTNNYFTSVPKNFMELLTNQEAQQWVSGWRLNADSVLWGGHKVFMVKPEEPFQPVKEATQL [R102S] | 0.0652 | 0.0298 | 0.0597 |  |  | 0.0498 | 0.0589 | 0.0432 | 0.0573 |  | 0.0669 | 0.0547 |  | 0.0503 |  | 0.0552 |  | 0.0569 | 0.0543 |
| MGESLFKGPRDYNPISSSICHLTNESDGHTTSLYGIGFGPFIITNKHLFRRNNGTLVVQSLHGVFKVKDTTTLQQHLVDGRDMIIIRMPKDFPPFPQKLKFLEPQREERICLVTTNFQTKSMSSMVSDTSCTFPSGDGIFWKHWIQTKDGQCGSPLVSTRDGFIVGIHSASNFTNTNNYFTSVPKNFMELLTNQEAQQWVSGWRLNADSVLWGGHKVFMVKPEEPFQPVKEATQL [R102L] | 0.0265 | 0.0404 |  |  | 0.0136 | 0.0449 | 0.0405 | 0.0498 | 0.0512 | 0.0486 |  |  | 0.0712 | 0.0447 |  | 0.0548 |  |  | 0.0512 |
| MGESLFKGPRDYNPISSSICHLTNESDGHTTSLYGIGFGPFIITNKHLFRRNNGTLVVQSLHGVFKVKDTTTLQQHLVDGRDMIIIRMPKDFPPFPQKLKFREPQRQERICLVTTNFQTKSMSSMVSDTSCTFPSGDGIFWKHWIQTKDGQCGSPLVSTRDGFIVGIHSASNFTNTNNYFTSVPKNFMELLTNQEAQQWVSGWRLNADSVLWGGHKVFMVKPEEPFQPVKEATQL [E107Q] | 0.111 |  | 0.1 | 0.0377 |  |  | 0.0685 | 0.0545 | 0.0989 | 0.0826 | 0.0654 | 0.0693 | 0.0982 |  | 0.101 |  |  |  |  |
| MGESLFKGPRDYNPISSSICHLTNESDGHTTSLYGIGFGPFIITNKHLFRRNNGTLVVQSLHGVFKVKDTTTLQQHLVDGRDMIIIRMPKDFPPFPQKLPFREPQREERICLVTTNFQTKSMSSMVSDTSCTFPSGDGIFWKHWIQTKDGQCGSPLVSTRDGFIVGIHSASNFTNTNNYFTSVPKNFMELLTNQEAQQWVSGWRLNADSVLWGGHKVFMVKPEEPFQPVKEATQL [K100P] | 0.121 | 0.0753 |  |  |  |  | 0.0879 |  | 0.104 | 0.0557 |  | 0.0516 |  |  |  | 0.0927 |  | 0.0706 |  |
